For 52 variants, cAMP reporter score and surface expression score results are on record in the GPR68 mutational scans of Howard et al. (2025).

Sequences and labels used below:
B1: GPR68, Q15743 (parent)
chain: MGNITADNSSMSCTIDHTIHQTLAPVVYVTVLVVGFPANCLSLYFGYLQIKARNELGVYLCNLTVADLFYICSLPFWLQYVLQHDNWSHGDLSCQVCGILLYENIYISVGFLCCISVDRYLAVAHPFRFHQFRTLKAAVGVSVVIWAKELLTSIYFLMHEEVIEDENQHRVCFEHYPIQAWQRAINYYRFLVGFLFPICLLLASYQGILRAVRRSHGTQKSRKDQIQRLVLSTVVIFLACFLPYHVLLLVRSVWEASCDFAKGVFNAYHFSLLLTSFNCVADPVLYCFVSETTHRDLARLRGACLAFLTCSRTGRAREAYPLGAPEASGKSGAQGEEPELLTKLHPAFQTPNSPGSGGFPTGRLA

Variants of B1 are the subject of data set [1]. The data set is described as follows: cAMP reporter score (Enrich2 score, wild type = 0); higher = more signal; HEK293T, FACS bins.
The variants in data set [2] derive from B1. Briefly: surface expression score (Enrich2 score, wild type = 0); higher = more signal; HEK293T, FACS bins.

The least precise scores are not listed. Two further conditions of the source, in which the scores hardly spread, are not listed. Read del as a deletion of the residues named and ins as an insertion between two positions. For some assays here: The data file names ogerin without a concentration.

Regarding L48_Q49insGS, the cAMP reporter score in data set [1] (pH 6, modulator: ogerin) is -0.746; in data set [1] (pH 6.5, modulator: ogerin) it was -0.051. Moreover, the surface expression score in data set [2] was -2.75.
Turning to S116del, the cAMP reporter score in data set [1] (pH 6.5, modulator: ogerin) was 0.287. In addition, the surface expression score in data set [2] was -0.228.
In the case of I105F, the cAMP reporter score in data set [1] (pH 6, modulator: ogerin) is -0.665. Moreover, in data set [2], the surface expression score was -0.314.
In the same order, the values of I105E are -0.606 and -0.427.
In the case of I105Y, the cAMP reporter score in data set [1] (pH 6, modulator: ogerin) was -0.624.
As to I105P, the cAMP reporter score in data set [1] (pH 6.5, modulator: ogerin) is -0.918.
With I236W, the cAMP reporter score in data set [1] (pH 6, modulator: ogerin) was found to be 0.697. Also, the surface expression score in data set [2] is -2.83.
With I236A, the cAMP reporter score in data set [1] (pH 6, modulator: ogerin) is -0.651.
Regarding A261F, the cAMP reporter score was -0.49 in data set [1] (pH 6); -1.23 in data set [1] (pH 6, modulator: ogerin); -0.323 in data set [1] (pH 6.5, modulator: ogerin).
In the case of V27T, the cAMP reporter score in data set [1] (pH 6.5, modulator: ogerin) is -0.252.
Take P351W: the cAMP reporter score in data set [1] (pH 6, modulator: ogerin) came to 1.35; in data set [1] (pH 6.5, modulator: ogerin), 0.547. Besides, the surface expression score in data set [2] came to 0.577.
Take P197S: the cAMP reporter score in data set [1] (pH 6, modulator: ogerin) is -1.96. In data set [2], the surface expression score was -3.56.
Turning to P197D, the cAMP reporter score in data set [1] (pH 6) is -0.65; in data set [1] (pH 6, modulator: ogerin), -0.694. Also, the surface expression score in data set [2] is -1.38.
As to P197G, the cAMP reporter score in data set [1] (pH 6) was -1.14; in data set [1] (pH 6.5, modulator: ogerin) it was -0.458. Further, in data set [2], the surface expression score was -2.86.
Consider P197N, for which the cAMP reporter score in data set [1] (pH 6, modulator: ogerin) was -0.75.
The same measure, in the same setting: then N104S, with -0.673.
As to F241N, the cAMP reporter score in data set [1] (pH 6) is 4.54. Also, the surface expression score in data set [2] was -1.09.
Take F241R: the cAMP reporter score in data set [1] (pH 6) was -0.2. Further, the surface expression score in data set [2] is -0.411.
On to Q206Y, for which the cAMP reporter score in data set [1] (pH 6) came to 1.18; in data set [1] (pH 6, modulator: ogerin) it was 0.608; in data set [1] (pH 6.5, modulator: ogerin), 0.452. In addition, in data set [2], the surface expression score came out at 1.27.
For Q206L, in data set [1] (pH 6, modulator: ogerin), the cAMP reporter score was -0.005. Besides, in data set [2], the surface expression score came to 0.597.
For the variant F194_F196del, the cAMP reporter score in data set [1] (pH 6) is 0.444; in data set [1] (pH 6.5, modulator: ogerin) it was -0.798. In data set [2], the surface expression score is -2.98.
For L200C, the cAMP reporter score was -0.831 in data set [1] (pH 6, modulator: ogerin) and 0.33 in data set [1] (pH 6.5, modulator: ogerin).
As for L200R, the cAMP reporter score in data set [1] (pH 6) was -0.114; in data set [1] (pH 6, modulator: ogerin), -2.03. Besides, in data set [2], the surface expression score is -0.455.
Regarding L200N, the cAMP reporter score in data set [1] (pH 6, modulator: ogerin) is -4.08; in data set [1] (pH 6.5, modulator: ogerin), -0.443. Besides, the surface expression score in data set [2] is -0.44.
As to L200W, the cAMP reporter score in data set [1] (pH 6.5, modulator: ogerin) is -0.437. Besides, in data set [2], the surface expression score is -0.412.
Take F288P: the cAMP reporter score in data set [1] (pH 6) was -1.73; in data set [1] (pH 6.5, modulator: ogerin), 0.01. Besides, the surface expression score in data set [2] was -2.83.
Take S356I: the cAMP reporter score in data set [1] (pH 6) came out at 0.22; in data set [1] (pH 6, modulator: ogerin), 1.28; in data set [1] (pH 6.5, modulator: ogerin) it was 1.03. In addition, in data set [2], the surface expression score worked out at 0.363.
Turning to F260C, the cAMP reporter score is -2.66 in data set [1] (pH 6, modulator: ogerin) and -1.52 in data set [1] (pH 6.5, modulator: ogerin). Further, the surface expression score in data set [2] came out at 0.506.
In the same order, the values of F260D are 0.697, 0.31 and -0.412.
As for F260A, the cAMP reporter score in data set [1] (pH 6) was determined as 0.435; in data set [1] (pH 6, modulator: ogerin), 0.648; in data set [1] (pH 6.5, modulator: ogerin) it was 0.086. For the same variant, the surface expression score in data set [2] was -0.238.
As for A138M, the cAMP reporter score in data set [1] (pH 6, modulator: ogerin) was -1.67; in data set [1] (pH 6.5, modulator: ogerin), -2.11. Besides, in data set [2], the surface expression score is -2.38.
With A138L, the surface expression score in data set [2] was -1.94.
For the variant A138K, the cAMP reporter score in data set [1] (pH 6) was -1.45; in data set [1] (pH 6, modulator: ogerin), 0.394; in data set [1] (pH 6.5, modulator: ogerin), -1.35.
For the variant A138T, the cAMP reporter score in data set [1] (pH 6, modulator: ogerin) was -0.118; in data set [1] (pH 6.5, modulator: ogerin), -0.427.
In the same order, the values of A138H are -0.735 and 0.239.
For the variant N8E, in data set [2], the surface expression score is -0.263.
For N278T, the cAMP reporter score in data set [1] (pH 6) is -0.211; in data set [1] (pH 6, modulator: ogerin), -0.671; in data set [1] (pH 6.5, modulator: ogerin) it was -0.808. Moreover, the surface expression score in data set [2] amounted to 0.145.
Consider T275R, for which, in data set [1] (pH 6, modulator: ogerin), the cAMP reporter score was determined as 0.033.
As for G362V, the cAMP reporter score was 0.404 in data set [1] (pH 6) and -0.101 in data set [1] (pH 6, modulator: ogerin). In data set [2], the surface expression score is 1.16.
For the variant I115K, the cAMP reporter score was -0.587 in data set [1] (pH 6) and -0.5 in data set [1] (pH 6.5, modulator: ogerin). Further, the surface expression score in data set [2] is -2.5.
I115L: the cAMP reporter score is -0.875 in data set [1] (pH 6); -0.221 in data set [1] (pH 6, modulator: ogerin); -0.71 in data set [1] (pH 6.5, modulator: ogerin).
Consider I115P, for which the cAMP reporter score in data set [1] (pH 6, modulator: ogerin) was -1.31. In addition, in data set [2], the surface expression score was -2.38.
For I115C, the cAMP reporter score in data set [1] (pH 6, modulator: ogerin) is -0.729. Besides, the surface expression score in data set [2] was -0.99.
Take I198A: the cAMP reporter score in data set [1] (pH 6) came to 3.66; in data set [1] (pH 6, modulator: ogerin), 1.72; in data set [1] (pH 6.5, modulator: ogerin) it was 0.806.
Turning to I198T, the cAMP reporter score in data set [1] (pH 6, modulator: ogerin) is -0.278; in data set [1] (pH 6.5, modulator: ogerin), 3.39.
I198S: the cAMP reporter score in data set [1] (pH 6, modulator: ogerin) amounted to 1.69. Further, the surface expression score in data set [2] was -0.896.
For I198K, the cAMP reporter score is -0.39 in data set [1] (pH 6) and -2.17 in data set [1] (pH 6, modulator: ogerin). Besides, in data set [2], the surface expression score was -0.548.
For I198G, the cAMP reporter score in data set [1] (pH 6, modulator: ogerin) was 0.009; in data set [1] (pH 6.5, modulator: ogerin), -0.175.
Take F307W: the cAMP reporter score in data set [1] (pH 6) is 1.85; in data set [1] (pH 6, modulator: ogerin), 1.26; in data set [1] (pH 6.5, modulator: ogerin), 0.884. The surface expression score in data set [2] turned out to be 2.
Regarding L231M, the cAMP reporter score in data set [1] (pH 6) is -0.042.
Regarding L231N, the cAMP reporter score in data set [1] (pH 6, modulator: ogerin) stood at 0.036.
L121_V123del: the cAMP reporter score in data set [1] (pH 6, modulator: ogerin) is -0.668; in data set [1] (pH 6.5, modulator: ogerin), -0.438. Also, the surface expression score in data set [2] was -0.672.
